Data: US20230113563A1 (SYSTIMMUNE, published 2023)

B1: SI-49P6 (other)
heavy: EIVMTQSPSTLSASVGDRVIITCQASESISSWLAWYQQKPGKAPKLLIYEASKLASGVPSRFSGSGSGAEFTLTISSLQPDDFATYYCQGYFYFISRTYVNSFGCGTKLTVLGSTGSGSKPGSGEGSTKGEVQLVESGGGLVQPGGSLRLSCTASGFTISTNAMSWVRQAPGKCLEWVGVITGRDITYYASWAKGRFTISRDTSKNTVYLQMNSLRAEDTAVYYCARDGGSSAITSNNIWGQGTLVTVSTGGGGSGGGGSFLNSLFNQEVQIPLTESYCGPCPKNWICYKNNCYQFFDESKNWYESQASCMSQNASLLKVYSKEDQDLLKLVKSYHWMGLVHIPTNGSWQWEDGSILSPNLLTIIEMQKGDCALYASSFKGYIENCSTPNTYICMQRTVASTKGPSVFPLAPSSKSTSGGTAALGCLVKDYFPEPVTVSWNSGALTSGVHTFPAVLQSSGLYSLSSVVTVPSSSLGTQTYICNVNHKPSNTKVDKRV[human IgG1 Fc with L234A L235A N297A K322A (EU numbers) cut from this listing]GGGGSGGGGSEVQLLESGGGLVQPGGSLRLSCAASGFSFSSGYDMCWVRQAPGKCLEWIACIAAGSAGITYDANWAKGRFTISRDNSKNTLYLQMNSLRAEDTAVYYCARSAFSFDYAMDLWGQGTLVTVSSGGGGSGGGGSGGGGSGGGGSDIQMTQSPSTLSASVGDRVTITCQASQSISSHLNWYQQKPGKAPKLLIYKASTLASGVPSRFSGSGSGTEFTLTISSLQPDDFATYYCQQGYSWGNVDNVFGCGTKVEIKGGGGSGGGGSGRSLVESGGGLVQPGGSLRLSCTASGFTISSYHMQWVRQAPGKCLEYIGTISSGGNVYYASSARGRFTISRPSSKNTVDLQMNSLRAEDTAVYYCARDSGYSDPMWGQGTLVTVSSGGGGSGGGGSGGGGSGGGGSDVVMTQSPSSVSASVGDRVTITCQASQNIRTYLSWYQQKPGKAPKLLIYAAANLASGVPSRFSGSGSGTDFTLTISDLEPGDAATYYCQSTYLGTDYVGGAFGCGTKVEIK
light: ENVLTQSPASLSASPGERVTITCSASSSVSYMHWYQQKPGQAPKLWIYDTSKLASGVPSRFSGSGSGNDHTLTISSMEPEDFATYYCFQGSVYPFTFGQGTKLEIKGSTGSGSKPGSGEGSTKGQVTLKESGPGLVQPGQTLRLTCAFSGFSLSTSGMGVGWIRQPPGKGLEWLAHIWWDDDKRYNPALKSRLTISKDTSKNQVYLQMNSLDAEDTAVYYCARMELWSYYFDYWGQGTLVTVSSGGGGSGGGGSGGGGSFLNSLFNQEVQIPLTESYCGPCPKNWICYKNNCYQFFDESKNWYESQASCMSQNASLLKVYSKEDQDLLKLVKSYHWMGLVHIPTNGSWQWEDGSILSPNLLTIIEMQKGDCALYASSFKGYIENCSTPNTYICMQRTVRTVAAPSVFIFPPSDEQLKSGTASVVCLLNNFYPREAKVQWKVDNALQSGNSQESVTEQDSKDSTYSLSSTLTLSKADYEKHKVYACEVTHQGLSSPVTKSFNRGEC
notes: Penta-specific GNC: same domains as SI-49E15 plus anti-CD19 (SI-BU12) scFv at D6
B2: SI-49R24 (Fc fusion)
chain 1: FLNSLFNQEVQIPLTESYCGPCPKNWICYKNNCYQFFDESKNWYESQASCMSQNASLLKVYSKEDQDLLKLVKSYHWMGLVHIPTNGSWQWEDGSILSPNLLTIIEMQKGDCALYASSFKGYIENCSTPNTYICMQRTVAS[human IgG1 Fc with C220S L234A L235A N297A K322A S354C T366W (EU numbers) cut from this listing]
chain 2: FLNSLFNQEVQIPLTESYCGPCPKNWICYKNNCYQFFDESKNWYESQASCMSQNASLLKVYSKEDQDLLKLVKSYHWMGLVHIPTNGSWQWEDGSILSPNLLTIIEMQKGDCALYASSFKGYIENCSTPNTYICMQRTVASEPKSSDKTHTCPPCPAPEAAGGPSVFLFPPKPKDTLMISRTPEVTCVVVDVSHEDPEVKFNWYVDGVEVHNAKTKPREEQYASTYRVVSVLTVLHQDWLNGKEYKCAVSNKALPAPIEKTISKAKGQPREPQVCTLPPSRDELTKNQVSLSCAVKGFYPSDIAVEWESNGQPENNYKTTPPVLDSDGSFFLVSKLTVDKSRWQQGNVFSCSVMHEALHNHYTQKSLSLSPGK
notes: Same structure as SI-49R23 (NKG2D-Fc, no CH1/CL), but with knobs-into-holes mutations in the Fc; Both chains are NKG2D-Fc chains
B3: SI-49R21 (Fc fusion)
heavy: FLNSLFNQEVQIPLTESYCGPCPKNWICYKNNCYQFFDESKNWYESQASCMSQNASLLKVYSKEDQDLLKLVKSYHWMGLVHIPTNGSWQWEDGSILSPNLLTIIEMQKGDCALYASSFKGYIENCSTPNTYICMQRTVASTKGPSVFPLAPSSKSTSGGTAALGCLVKDYFPEPVTVSWNSGALTSGVHTFPAVLQSSGLYSLSSVVTVPSSSLGTQTYICNVNHKPSNTKVDKRV[human IgG1 Fc with L234A L235A N297A K322A (EU numbers) cut from this listing]
light: FLNSLFNQEVQIPLTESYCGPCPKNWICYKNNCYQFFDESKNWYESQASCMSQNASLLKVYSKEDQDLLKLVKSYHWMGLVHIPTNGSWQWEDGSILSPNLLTIIEMQKGDCALYASSFKGYIENCSTPNTYICMQRTVRTVAAPSVFIFPPSDEQLKSGTASVVCLLNNFYPREAKVQWKVDNALQSGNSQESVTEQDSKDSTYSLSSTLTLSKADYEKHKVYACEVTHQGLSSPVTKSFNRGEC
notes: Monospecific GNC (antibody-like protein) with NKG2D receptor in place of the antibody VH/VL domains (D2); The NKG2D monomers on the two chains dimerize upon chain association
B4: SI-49R22 (Fc fusion)
heavy 1: FLNSLFNQEVQIPLTESYCGPCPKNWICYKNNCYQFFDESKNWYESQASCMSQNASLLKVYSKEDQDLLKLVKSYHWMGLVHIPTNGSWQWEDGSILSPNLLTIIEMQKGDCALYASSFKGYIENCSTPNTYICMQRTVASTKGPSVFPLAPSSKSTSGGTAALGCLVKDYFPEPVTVSWNSGALTSGVHTFPAVLQSSGLYSLSSVVTVPSSSLGTQTYICNVNHKPSNTKVDKRV[human IgG1 Fc with L234A L235A N297A K322A S354C T366W (EU numbers) cut from this listing]
light: B3 light
heavy 2: FLNSLFNQEVQIPLTESYCGPCPKNWICYKNNCYQFFDESKNWYESQASCMSQNASLLKVYSKEDQDLLKLVKSYHWMGLVHIPTNGSWQWEDGSILSPNLLTIIEMQKGDCALYASSFKGYIENCSTPNTYICMQRTVASTKGPSVFPLAPSSKSTSGGTAALGCLVKDYFPEPVTVSWNSGALTSGVHTFPAVLQSSGLYSLSSVVTVPSSSLGTQTYICNVNHKPSNTKVDKRVEPKSCDKTHTCPPCPAPEAAGGPSVFLFPPKPKDTLMISRTPEVTCVVVDVSHEDPEVKFNWYVDGVEVHNAKTKPREEQYASTYRVVSVLTVLHQDWLNGKEYKCAVSNKALPAPIEKTISKAKGQPREPQVCTLPPSRDELTKNQVSLSCAVKGFYPSDIAVEWESNGQPENNYKTTPPVLDSDGSFFLVSKLTVDKSRWQQGNVFSCSVMHEALHNHYTQKSLSLSPGK
notes: Same format as SI-49R21 (NKG2D at D2), but with a heterodimerizing knobs-into-holes Fc
B5: SI-49E15 (other)
heavy: B1 heavy
light: B3 light
notes: Tetra-specific GNC: anti-CD3 scFv at D1, NKG2D at D2, anti-PD-L1 scFv at D3, anti-4-1BB scFv at D4

These binders were tested against T1, human MICA (Acro, MIA-H5221) (human, UniProt Q29983 24-307, limits assumed) (assay: BLI (Octet); GNC protein loaded on AHC sensors at 5 ug/ml; human MICA as analyte, 1:2 serial dilutions from 100 nM; global fit, 1:1 model).
T1 construct: Bought reagent used as analyte in solution; also called NKG2D ligand MICA
Description: To validate functionality of the NKG2D receptor in the D2 position, Octet binding was performed. GNC protein was loaded onto AHC sensors at 5 ug/ml, and subsequently bound to 1:2 serial dilutions (top concentration 100 nM) of human MICA (Acro, MIA-H5221).

T1 sequence (Q29983 24-307 limits assumed): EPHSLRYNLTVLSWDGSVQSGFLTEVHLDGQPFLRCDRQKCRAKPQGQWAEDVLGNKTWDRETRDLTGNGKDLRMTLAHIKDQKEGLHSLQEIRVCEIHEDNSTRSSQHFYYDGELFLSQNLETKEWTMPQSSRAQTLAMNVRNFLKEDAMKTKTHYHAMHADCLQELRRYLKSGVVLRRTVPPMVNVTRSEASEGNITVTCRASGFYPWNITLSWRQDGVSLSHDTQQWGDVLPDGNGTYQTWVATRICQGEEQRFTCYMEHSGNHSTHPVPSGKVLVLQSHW

Kd [nM]	Binder
8.7	B1
17.7	B2
8.95	B3
1.93	B4
3.34	B5
